Measured values reported in the supplement of paper PMC10369915.
Some of the results follow. No stated cut-off is given here; in the data, active = 3.2 or more and inactive = the rest. The signal is at background level for most entries.

target: SHP2 C-SH2 domain E139D; assay: enrichment score (SH2-bound / input frequency) (ratio); bacterial display of known human phosphotyrosine sites (pTyr-Var adds point mutants) read by sequencing; higher = stronger binding; tyrosines were phosphorylated by kinases first; settings: peptide library: pTyr-Var
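Further: displayed peptides selected on beads carrying the immobilized SH2 domain, with library peptides lacking any tyrosine serving as negative controls.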

Enrichment score, inactive:
NLMPAYYKCIQ [CYP21A2_Y190] 0.967, RMSQRYGDVLQ [CYP1A2_Y72] 0.896, PFTRNYYVRAV [CYBA_Y87] 0.533, FTRNYYVQAVL [CYBA_Y88_R90Q] 1.22, SQAPGYSFTAA [CYCS_Y47_G42S_YF] 0.762, KLQKKYGPIFS [CYP17A1_Y60_YF] 0.834, KLQKKYGPISS [CYP17A1_Y60_Y64S] 0.46, GCAGKYIAMVM [CYP19A1_Y441] 1.16, ASENVYVNTAH [CTSC_Y150_I153T] 1.77, YSKTQYNQVPR [CXADR_Y318_S323R] 0.707, CYSSEYHYVGG [CTSC_Y345_Y340C] 1.17, GQAPGYSYTAA [CYCS_Y47] 0.697, RDMMDYMPQGV [CYP21A2_Y259_L261P] 0.895, VKKKLYEEIDQ [CYP17A1_Y329] 0.905, PDSVDYPKKGY [CTSK_Y121_R122P] 0.466, CFSSEYHFVGG [CTSC_Y345_Y340C_YF] 1.07, GKMSQYLESMQ [CYB5R3_Y130] 0.84

Enrichment score, active:
NIISFYLSRDP [CTSD_Y232_F229I] 3.21

target: SHP2 C-SH2 domain wild-type; assay: as above; settings: peptide library: pTyr-Var

Enrichment score, active:
NIISFYLSRDP [CTSD_Y232_F229I] 3.42

Enrichment score, inactive:
NLMPAYYKCIQ [CYP21A2_Y190] 1, RMSQRYGDVLQ [CYP1A2_Y72] 0.799, PFTRNYYVRAV [CYBA_Y87] 0.799, FTRNYYVQAVL [CYBA_Y88_R90Q] 1.26, SQAPGYSFTAA [CYCS_Y47_G42S_YF] 0.76, KLQKKYGPIFS [CYP17A1_Y60_YF] 0.787, KLQKKYGPISS [CYP17A1_Y60_Y64S] 0.443, GCAGKYIAMVM [CYP19A1_Y441] 1.61, ASENVYVNTAH [CTSC_Y150_I153T] 1.6, YSKTQYNQVPR [CXADR_Y318_S323R] 0.655, CYSSEYHYVGG [CTSC_Y345_Y340C] 1.29, GQAPGYSYTAA [CYCS_Y47] 0.646, RDMMDYMPQGV [CYP21A2_Y259_L261P] 0.717, VKKKLYEEIDQ [CYP17A1_Y329] 0.851, PDSVDYPKKGY [CTSK_Y121_R122P] 0.43, CFSSEYHFVGG [CTSC_Y345_Y340C_YF] 1.06, GKMSQYLESMQ [CYB5R3_Y130] 0.565

target: SHP2 N-SH2 domain L43F; assay: as above; settings: peptide library: pTyr-Var

Enrichment score, inactive:
NLMPAYYKCIQ [CYP21A2_Y190] 1.11, RMSQRYGDVLQ [CYP1A2_Y72] 1.17, PFTRNYYVRAV [CYBA_Y87] 0.532, FTRNYYVQAVL [CYBA_Y88_R90Q] 1.14, SQAPGYSFTAA [CYCS_Y47_G42S_YF] 0.671, KLQKKYGPIFS [CYP17A1_Y60_YF] 0.82, KLQKKYGPISS [CYP17A1_Y60_Y64S] 0.433, GCAGKYIAMVM [CYP19A1_Y441] 1.2, ASENVYVNTAH [CTSC_Y150_I153T] 1.47, YSKTQYNQVPR [CXADR_Y318_S323R] 0.602, CYSSEYHYVGG [CTSC_Y345_Y340C] 1.07, GQAPGYSYTAA [CYCS_Y47] 0.615, RDMMDYMPQGV [CYP21A2_Y259_L261P] 0.853, NIISFYLSRDP [CTSD_Y232_F229I] 2.79, VKKKLYEEIDQ [CYP17A1_Y329] 0.822, PDSVDYPKKGY [CTSK_Y121_R122P] 0.595, CFSSEYHFVGG [CTSC_Y345_Y340C_YF] 0.962, GKMSQYLESMQ [CYB5R3_Y130] 0.79

target: SHP2 N-SH2 domain T42A; assay: as above; settings: peptide library: pTyr-Var

Enrichment score, inactive:
NLMPAYYKCIQ [CYP21A2_Y190] 0.752, RMSQRYGDVLQ [CYP1A2_Y72] 0.567, PFTRNYYVRAV [CYBA_Y87] 0.568, FTRNYYVQAVL [CYBA_Y88_R90Q] 1.1, SQAPGYSFTAA [CYCS_Y47_G42S_YF] 0.905, KLQKKYGPIFS [CYP17A1_Y60_YF] 0.607, KLQKKYGPISS [CYP17A1_Y60_Y64S] 0.435, GCAGKYIAMVM [CYP19A1_Y441] 1.07, ASENVYVNTAH [CTSC_Y150_I153T] 2.01, YSKTQYNQVPR [CXADR_Y318_S323R] 0.497, CYSSEYHYVGG [CTSC_Y345_Y340C] 0.869, GQAPGYSYTAA [CYCS_Y47] 0.595, RDMMDYMPQGV [CYP21A2_Y259_L261P] 0.971, NIISFYLSRDP [CTSD_Y232_F229I] 2.95, VKKKLYEEIDQ [CYP17A1_Y329] 0.755, PDSVDYPKKGY [CTSK_Y121_R122P] 0.489, CFSSEYHFVGG [CTSC_Y345_Y340C_YF] 0.831, GKMSQYLESMQ [CYB5R3_Y130] 0.79

target: SHP2 N-SH2 domain T52S; assay: as above; settings: peptide library: pTyr-Var

Enrichment score, active:
NIISFYLSRDP [CTSD_Y232_F229I] 3.3

Enrichment score, inactive:
NLMPAYYKCIQ [CYP21A2_Y190] 0.914, RMSQRYGDVLQ [CYP1A2_Y72] 0.98, PFTRNYYVRAV [CYBA_Y87] 0.483, FTRNYYVQAVL [CYBA_Y88_R90Q] 1.16, SQAPGYSFTAA [CYCS_Y47_G42S_YF] 0.718, KLQKKYGPIFS [CYP17A1_Y60_YF] 0.763, KLQKKYGPISS [CYP17A1_Y60_Y64S] 0.431, GCAGKYIAMVM [CYP19A1_Y441] 1.26, ASENVYVNTAH [CTSC_Y150_I153T] 1.98, YSKTQYNQVPR [CXADR_Y318_S323R] 0.642, CYSSEYHYVGG [CTSC_Y345_Y340C] 0.851, GQAPGYSYTAA [CYCS_Y47] 0.555, RDMMDYMPQGV [CYP21A2_Y259_L261P] 0.641, VKKKLYEEIDQ [CYP17A1_Y329] 0.833, PDSVDYPKKGY [CTSK_Y121_R122P] 0.411, CFSSEYHFVGG [CTSC_Y345_Y340C_YF] 0.843, GKMSQYLESMQ [CYB5R3_Y130] 0.769

target: SHP2 N-SH2 domain wild-type; assay: as above; settings: peptide library: pTyr-Var

Enrichment score, active:
NIISFYLSRDP [CTSD_Y232_F229I] 3.3

Enrichment score, inactive:
NLMPAYYKCIQ [CYP21A2_Y190] 1.27, RMSQRYGDVLQ [CYP1A2_Y72] 0.808, PFTRNYYVRAV [CYBA_Y87] 0.574, FTRNYYVQAVL [CYBA_Y88_R90Q] 1.17, SQAPGYSFTAA [CYCS_Y47_G42S_YF] 0.824, KLQKKYGPIFS [CYP17A1_Y60_YF] 0.787, KLQKKYGPISS [CYP17A1_Y60_Y64S] 0.588, GCAGKYIAMVM [CYP19A1_Y441] 1.4, ASENVYVNTAH [CTSC_Y150_I153T] 1.74, YSKTQYNQVPR [CXADR_Y318_S323R] 0.573, CYSSEYHYVGG [CTSC_Y345_Y340C] 1.64, GQAPGYSYTAA [CYCS_Y47] 0.681, RDMMDYMPQGV [CYP21A2_Y259_L261P] 0.972, VKKKLYEEIDQ [CYP17A1_Y329] 0.631, PDSVDYPKKGY [CTSK_Y121_R122P] 0.464, CFSSEYHFVGG [CTSC_Y345_Y340C_YF] 1.19, GKMSQYLESMQ [CYB5R3_Y130] 0.671
